Experimental data published in PubChem BioAssay AID686979 (National Center for Advancing Translational Sciences (NCATS), 2013).
Values joined by “and” are separate entries in the source; they are usually repeats but may differ in a detail not shown here. Equal values may be shown once. About 50,000 (12%) of roughly 420,000 compounds were called active. This list was built around the results that the source calls inconclusive (neither active nor inactive); the mix of calls is not that of the screen. Calls come from the whole dose curve; as a rule, active = well fitted inhibition curve with a large enough effect; inconclusive = small, poorly fitted or top-dose-only effect; inactive = flat fitted curve, though single readings scatter. No potency is given beside an inconclusive call; the fits are too rough.

assay: qHTS for Inhibitors of human tyrosyl-DNA phosphodiesterase 1 (TDP1): qHTS in cells in presence of CPT; conditions: chicken DT40 Tdp1-/-;hTDP1 cells + 20 nM CPT, ATP luminescence, 48 h; series mostly up to 46.2 µM; note: nearly all actives have a fitted effect of over 55% in size
In short: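 Chicken DT40 Tdp1-/- cells complemented with human TDP1, 400 cells/well, exposed to compounds plus 20 nM camptothecin for at least 48 h at 37 C; viability read as ATP content by CellTiter-Glo luminescence.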
Potency is the fitted concentration of half-maximal effect; tags give direction and shape of the fitted curve.

| SMILES | Potency |
| --- | --- |
| CCOC(=O)C1CCN(C(=O)C2CCN(c3nc4ccc(OC)cc4s3)CC2)CC1 | active: 13 µM |
| COc1ccccc1C(=O)NCC(=O)NCc1cc(=O)n(C)c(=O)n1C | inactive |
| CCCc1cc(C(=O)NNC(=S)NCC)c2ccccc2n1 | inconclusive [inhibitor, single point] |
| CC(C)CN(CCCNC(=O)CN1C(=O)CSc2ccc(S(=O)(=O)N3CCOCC3)cc21)CC(C)C | inactive |
| Cc1ccccc1CCNC(=O)c1ccc2c(c1)c(C)c(C)n2Cc1ccccc1 | active: 18.4 µM |
| C=CCn1c(SCC(=O)c2ccc(OC)cc2)nnc1-c1cc2cccc(OC)c2o1 | inactive |
| CCOc1ccc(CNC(=O)CSc2nnc(C)c3c(C)n(-c4ccccc4)nc23)cc1 | inconclusive [inhibitor, single point] |
| CCOC(=O)Nc1ccc2c(c1)N(C(=O)CCN(C)C)c1ccccc1CC2 | inactive |
| N#CCCN(C(=O)COC(=O)C1CCN(S(=O)(=O)c2ccc3c(c2)OCCO3)CC1)c1ccccc1 | inactive |
| CN(C)c1ccc(/C=C2\SC(=O)N(CC(O)Cn3c4ccccc4c4ccccc43)C2=O)cc1 (stereo not given) | inconclusive [inhibitor, partial curve, poor fit] |
| COc1ccc(NC(=O)Cn2nnc(-c3ccccc3NS(=O)(=O)c3ccccc3)n2)cc1 | active: 23.1 µM |
| COCCCn1c(=O)/c(=C\c2ccc(OC(F)F)c(OC)c2)s/c1=C(/C#N)C(N)=O | inconclusive [inhibitor, partial curve] |
| NC(=NC1C2CC3CC(C2)CC1C3)Nc1ccc(I)cc1 (stereo not given) | active: 2.99 µM and active: 2.31 µM and active: 4.11 µM |
| COc1ccc(N2CCN(Cc3nc(-c4ccc(Cl)cc4Cl)no3)CC2)cc1 | inconclusive [inhibitor, single point] |
| CCc1nc(SCC(=O)Nc2ccccc2OC)n[nH]1 | inactive |
| COCCCn1c(C(=O)N2CC(C)OC(C)C2)cc2c(=O)n3cccc(C)c3nc21 (stereo not given) | inconclusive [inhibitor, partial curve, poor fit] |
| CCCCOc1ccc(/C=C(\C(=O)O)c2ccc(S(=O)(=O)N3CCCC3)s2)cc1 | inconclusive [inhibitor, single point] |
| CCOc1ccc(NC(=O)CC2C(=O)OCCN2CC)cc1 (stereo not given) | active: 8.2 µM |
| Cc1ccc(OCC(=O)N(c2ccccn2)C2CCCCC2)c(C)c1 | inconclusive [inhibitor, single point] |
| Cn1c(=O)[nH]c(=O)c2c1nc1n2CCCN1Cc1ccccc1 | inactive |
| Cc1cc(C(F)F)n2ncc(C(=O)NCc3ccccc3C(F)(F)F)c2n1 | inconclusive [inhibitor, partial curve] |
| Cc1cc2cc(CNC(=O)C(C)Oc3ccccc3)ccc2n1C (stereo not given) | inconclusive [inhibitor, single point] |
| CC(C)(C)c1cc(NC(=O)Nc2ccc(Cl)cc2Cl)no1 | inconclusive [inhibitor, partial curve, poor fit] |

| SMILES | Potency |
| --- | --- |
| CCc1cccc(OCCCn2ccnc2)c1 | inconclusive [inhibitor, single point] |
| Cc1nc2sc3c(NCc4ccco4)ncnc3c2c2c1COC(C)(C)C2 | inconclusive [inhibitor, single point] |
| O=C1Nc2ccccc2NC(c2ccc3c(c2)OCO3)=C1N(Cc1ccc(F)cc1)C(=O)c1ccco1 | active: 16.4 µM |
| COc1cc2[nH]c(C(=O)N3CCc4ccccc43)cc2c(OC)c1OC | inconclusive [inhibitor, single point] |
| Cc1ccc(C(=O)NCC(=O)OC(C)C(=O)NC2CCCCC2C)cc1C (stereo not given) | inactive |
| CN1CCN(Cc2c(O)ccc3c2oc(=O)c2ccccc23)CC1 | inconclusive [inhibitor, single point] |
| CCOc1cccc(CNc2ccc(O)cc2)c1OCc1ccc(Cl)cc1Cl | active: 14.6 µM |
| CCOC(=O)[C@]12CCC=C1N(CCC1=CCCCC1)C(=O)[C@H](CC(=O)NCc1cccc3ccccc13)C2 | inconclusive [inhibitor, single point] |
| O=C(CCOc1ccccc1)Nc1ccc(S(=O)(=O)Nc2ncccn2)cc1 | inactive |
| COC(=O)Cc1[nH]n(-c2nc3ccccc3s2)c(=O)c1C(C)=Nc1ccc(OC)cc1 | active: 5.17 µM |
| Cc1cccc2sc(NC(=O)CN(C)S(=O)(=O)c3ccc(Br)s3)nc12 | inconclusive [inhibitor, single point] |
| NC(=O)N/N=C/c1ccccc1OC(=O)c1cc2ccccc2oc1=O | inactive |
| COc1ccc(CCN2C(=O)CSCC2(C)C(=O)Nc2ccc3c(c2)OCCO3)cc1OC (stereo not given) | inconclusive [inhibitor, single point] |
| O=S(=O)(c1ccc(F)cc1)N1CCN(S(=O)(=O)c2cc(F)ccc2F)CC1 | inconclusive [inhibitor, single point] |
| COc1ccccc1-c1coc2c(CN3CCCC(C)C3)c(O)ccc2c1=O (stereo not given) | inconclusive [inhibitor, single point] |
| CCN(CC)c1ccc(N=Cc2ccc([N+](=O)[O-])o2)cc1 | active: 5.8 µM |
| COc1cccc(OCc2cc(C(=O)N3CCC(C(O)C(C)C)CC3)no2)c1 (stereo not given) | inconclusive [inhibitor, single point] |
| Cc1c(C)c2ccc(OCC(=O)N3CC[C@@]4(O)CCCC[C@H]4C3)cc2oc1=O | inactive |
| C=CCNC(=O)/C(C#N)=C/c1c(N2CC(C)OC(C)C2)nc2ccccn2c1=O (stereo not given) | inactive |
| COc1ccc(N2CCN(C(=O)c3cc4ccc5cccnc5c4[nH]3)CC2)cc1 | inconclusive [inhibitor, single point] |
| S=C(c1ccc(-c2ccccc2)o1)N1CCCCC1 | inconclusive [inhibitor, single point] |
| N#Cc1ccc(Nc2nc(-c3ccccc3)c(C(=O)c3ccccc3)s2)cc1 | active: 18.4 µM |
